Results on 79 sequences are retold here after the supplement of paper PMC10126150.

Sequences with one replicate were seen in a single cluster, so their values are uncertain.
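Also: ATP exposure 15 min at 22 °C before imaging.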

In the data set the test system is ATP. As to the kind of experiment: switch fluorescence ratio, 500 uM ATP over buffer (Cy3 cluster intensity, sum of 5 cycles each) (fold (ratio)); higher = stronger signal-on switching upon ATP binding; sequences stand for … in TCGTCGGCAGCGTCAGATGTGTATAAGAGACAGTTTTTTTTTTTTTTTTTTTTTTTTT…TC. The settings on record: aptamer strand: ATP DNA aptamer (quencher-CACCTGGGGGAGTATTGCGGAGGAAGG + anchor), 100 nM annealed; ATP concentration: 500 uM; one replicate. In outline:
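Cy3-labelled switching-strand clusters on a modified Illumina MiSeq flow-cell were annealed to 100 nM quencher-labelled ATP aptamer and imaged first in selection buffer, then after 15 min with 500 uM ATP at 22 °C. NaOH stripping and re-annealing separated each of five buffer/ATP cycles, and clusters outside 100-1000 RFU were excluded. The fluorescence ratio sums target-cycle Cy3 intensity over buffer-cycle Cy3 intensity per cluster and averages it per switch-domain sequence.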
Take ATAGTGTGTC: the switch fluorescence ratio amounted to 0.923.

For the sequence AGCCTGGCTG, the switch fluorescence ratio was 0.973. CGCCTCTCAA: the switch fluorescence ratio is 1.6. On to GATTGTCCGG, for which the switch fluorescence ratio turned out to be 0.998. In the case of GAGGAAGCGG, the switch fluorescence ratio was 1.02. In the case of GCGTACTCAG, the switch fluorescence ratio is 1.07.

On to GCCCGTACTG, for which the switch fluorescence ratio came to 0.974.

For the sequence ACTAATATAG, the switch fluorescence ratio came to 0.975.

Take TATGGACGAG: the switch fluorescence ratio stood at 0.959.

Consider CGAGGGCGAG, for which the switch fluorescence ratio was 1.01. With GGTGGATTCT the figure was 0.973; with TAAGTATCGG, 0.999; with TTGCTGGAAC, 0.985. For TCAGGGTGCA, the switch fluorescence ratio is 0.987. As to TGTTGTACAG, the switch fluorescence ratio was determined as 0.983. With ATATGTTCAC, the switch fluorescence ratio was 1.02. In the case of AAATTCACTG, the switch fluorescence ratio turned out to be 1.01.

Regarding TCCTACTTAA, the switch fluorescence ratio turned out to be 1.07. In the case of TGATTCCTAT, the switch fluorescence ratio worked out at 1.

As to CGTCCAGGC, the switch fluorescence ratio came to 1.16. Consider TTCTCGGACT, for which the switch fluorescence ratio came out at 1.03. Take ATTAGATGCC: the switch fluorescence ratio stood at 0.994. With TGGAGGAGTG, the switch fluorescence ratio came to 0.997. Consider ATACAAGTGG, for which the switch fluorescence ratio was 1.01. With ATATTCGCCA, the switch fluorescence ratio was determined as 1.02. As to GATAAATAGC, the switch fluorescence ratio came out at 1.07. On to TATTCATAAC, for which the switch fluorescence ratio was found to be 0.989. With TTAGTGCGCG, the switch fluorescence ratio is 1.05.

As to GTACTTTGGG, the switch fluorescence ratio stood at 1.04. For TCCTCACAG, the switch fluorescence ratio was found to be 1.48. For TAGTTTATAC, the switch fluorescence ratio was 1.06. CCAGTCGGCA: the switch fluorescence ratio was 1.03. In the case of GTATATGATG, the switch fluorescence ratio came out at 1.03. Take GTTGCTAGGG: the switch fluorescence ratio came out at 0.987.

In the case of CGTCCTAACT, the switch fluorescence ratio was determined as 0.996.

With TTGCCGACTT, the switch fluorescence ratio came to 0.998. With GTGCAAAGAT the figure was 0.997; with GAAGCGAAGG, 1.05; with GGTGTCAGCG, 0.993. For AGGAAATGCT, the switch fluorescence ratio was determined as 0.979. On to TGATAATCAG, for which the switch fluorescence ratio came to 0.991. In the case of ATGGTACGAG, the switch fluorescence ratio came out at 1.02.

As to AAAGGCCCAA, the switch fluorescence ratio was found to be 0.955.

Take TTTAGAGACG: the switch fluorescence ratio was found to be 1.04.

On to GAACTTCCT, for which the switch fluorescence ratio was found to be 1.93. ACTGACTTGT: the switch fluorescence ratio is 1.03. As for TCAGTGTATC, the switch fluorescence ratio was 0.985. With AGGTGATCAG, the switch fluorescence ratio was determined as 0.959. With TAGTAACCTT, the switch fluorescence ratio was 1.67. With GCTGTGCGTT the figure was 1.03; with TCGGTAGAGA, 1.05; with CCACGGAAAG, 0.986.

With AATGCAGTTT, the switch fluorescence ratio was found to be 0.948.

As for GATCTCATGA, the switch fluorescence ratio was 0.934. As for GATCTAGATC, the switch fluorescence ratio came to 0.977. With AGAGGGG the figure was 0.977. As for CACATATTCT, the switch fluorescence ratio worked out at 0.966. With CTACTATCGC the figure was 1.09; with TAAATATTAC, 0.993; with AACTGCTTAT, 0.972.

As to TAACAGAAAT, the switch fluorescence ratio came to 0.987. In the case of GTGGATGGC, the switch fluorescence ratio was 0.966. Consider AAAAGAATTT, for which the switch fluorescence ratio came to 0.952.

For the sequence AGGAAGTG, the switch fluorescence ratio is 0.962. GTTAACCTTG: the switch fluorescence ratio worked out at 1.03.

In the case of AAACGGGGCC, the switch fluorescence ratio was found to be 1.04. With ATACACGGGC the figure was 1.11. For the sequence TCGCAAACTT, the switch fluorescence ratio turned out to be 3.63. Consider CCACGTTTTT, for which the switch fluorescence ratio was found to be 1. With AGGAGTCAGT, the switch fluorescence ratio was 0.989. For TGGGTCCTGG, the switch fluorescence ratio was determined as 0.95. For the sequence CATGTAATCA, the switch fluorescence ratio was determined as 0.978. With AAACCTCGGG the figure was 0.97; with GTGCTTGAAA, 1.03; with TAGGTGTGAG, 0.96. CAGGGCGTTG: the switch fluorescence ratio came to 1.

TGAATTCCGG: the switch fluorescence ratio came out at 0.996. As for TGCATTGGGT, the switch fluorescence ratio came out at 1.02. On to GGACATTCGT, for which the switch fluorescence ratio turned out to be 0.998.
